# Reference: publication PMC4336329 (PLoS ONE, 2015)
# Among all 310,000 compounds or so, about 2,200 (0.71%) showed an effect of 50% or more. Effects have a minus sign here. Some of the results follow.
# Biological target: human ether-à-go-go-related gene (hERG) potassium channel (human, UniProt Q12809)
# Assay: primary screen, population patch clamp on CHO cells stably expressing hERG
# human ether-à-go-go-related gene (hERG) potassium channel, sequence (Q12809 whole entry, looked up): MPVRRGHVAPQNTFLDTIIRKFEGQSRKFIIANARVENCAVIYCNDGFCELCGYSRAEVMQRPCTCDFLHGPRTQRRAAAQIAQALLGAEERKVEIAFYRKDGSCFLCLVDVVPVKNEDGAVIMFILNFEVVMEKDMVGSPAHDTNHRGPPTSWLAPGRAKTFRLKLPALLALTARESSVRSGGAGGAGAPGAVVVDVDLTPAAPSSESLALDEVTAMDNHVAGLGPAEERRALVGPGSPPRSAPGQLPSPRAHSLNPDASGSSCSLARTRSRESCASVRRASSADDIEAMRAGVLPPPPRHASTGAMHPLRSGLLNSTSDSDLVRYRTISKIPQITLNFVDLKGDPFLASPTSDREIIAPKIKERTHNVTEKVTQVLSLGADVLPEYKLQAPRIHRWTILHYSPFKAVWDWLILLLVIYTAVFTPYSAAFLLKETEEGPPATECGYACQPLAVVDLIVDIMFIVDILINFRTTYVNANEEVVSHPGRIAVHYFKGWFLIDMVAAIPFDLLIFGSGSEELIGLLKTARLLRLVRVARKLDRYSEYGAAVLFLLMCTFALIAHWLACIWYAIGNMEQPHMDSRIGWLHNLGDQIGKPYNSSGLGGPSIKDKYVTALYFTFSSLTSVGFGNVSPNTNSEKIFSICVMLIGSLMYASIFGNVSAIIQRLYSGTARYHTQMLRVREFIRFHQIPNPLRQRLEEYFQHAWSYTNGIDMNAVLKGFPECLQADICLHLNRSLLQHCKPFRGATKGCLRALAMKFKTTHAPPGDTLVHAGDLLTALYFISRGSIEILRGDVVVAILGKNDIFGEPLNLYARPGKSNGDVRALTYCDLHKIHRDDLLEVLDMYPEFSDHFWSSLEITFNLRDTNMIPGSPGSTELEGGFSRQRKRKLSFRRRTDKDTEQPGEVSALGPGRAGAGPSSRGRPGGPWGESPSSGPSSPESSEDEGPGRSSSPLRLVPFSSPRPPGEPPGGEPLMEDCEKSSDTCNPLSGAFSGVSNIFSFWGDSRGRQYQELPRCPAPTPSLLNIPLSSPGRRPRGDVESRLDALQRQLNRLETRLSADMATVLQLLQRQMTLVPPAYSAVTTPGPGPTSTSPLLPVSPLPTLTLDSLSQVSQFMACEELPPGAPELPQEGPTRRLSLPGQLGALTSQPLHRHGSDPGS
row,SMILES,"hERG current change (%, negative = inhibition) at 1uM [%]"
1,CCOc1ccccc1-n1nnnc1SCC(=O)OC,15.2
2,Cc1ccc2c(c1)C1CN(C)CCC1N2C(=O)Nc1cccc(Cl)c1 (stereo not drawn),-10.3
3,Cl.OC1(c2ccccc2)CNCCc2ccccc21 (stereo not drawn),12.5
4,Cc1ccc(/C([O-])=C(/C(=S)NCc2ccco2)[n+]2ccccc2)cc1,9.21
5,COC(=O)c1cc2c(C)nn(-c3ccccc3)c2s1,4.06
6,NC(=O)C1CCN(C(=O)COc2ccc(S(=O)(=O)NCc3ccccc3)cc2Cl)CC1,4.5
7,Cn1c(N)c(C(=O)COC(=O)c2ccco2)c(=O)n(C)c1=O,9.87
8,Cc1cc2oc(C(=O)N3CCN(CCc4ccccn4)CC3)c(C)c2cc1C,-6.88
9,C[C@@H](O)CC(=O)O,-4.49
10,O=C(c1nc2ncccn2n1)N1CCN(c2ccc(F)cc2)CC1,-10.1
11,c1ccc2c(c1)nc(NC1CCCCC1)c1nncn12,-1.51
12,COc1ccc(-c2cc(C)no2)cc1S(=O)(=O)N1CC(=O)Nc2ccccc21,16.6
13,COc1ccccc1OCCOc1ccc(C(=O)c2ccccc2)cc1,6.16
14,COCCCn1c(SCC(=O)N2CCCCC2C)nnc1-c1ccco1 (stereo not drawn),4.52
15,O=C(CC(C(=O)O)c1ccccc1)Nc1ccccc1 (stereo not drawn),13.7
16,Cc1ccc(NC2(c3nnnn3-c3c(C)cccc3C)CCCCC2)cc1,10.1
17,CC1(C)Oc2ccc3ccc(=O)oc3c2C(/C=N/O)C1=O (stereo not drawn),17.3
18,CCOc1ccccc1NC(=O)c1nc(-c2ccccc2)oc1C,8.2
19,O=c1c2ccccc2cnn1Cc1n[nH]c(=S)n1-c1ccc(Cl)cc1,3.76
20,Nc1[nH]n(-c2ccccc2)c(=O)c1N=Nc1ccc2c(c1)OCO2,9.34
21,COCCn1c(SCC(=O)Nc2cccc(F)c2)nc2c(c1=O)SCC2,9.53
22,O=C1C2CC(O)CN2C(=O)N1c1ccccc1 (stereo not drawn),8.62
23,O=c1[nH]c(=O)n(Cc2ccccc2)c(O)c1/C=C1\C=Nc2ccccc21,9.58

row,SMILES,"hERG current change (%, negative = inhibition) at 1uM [%]"
1,CCOC(=O)c1c(-c2cccc(C)c2)csc1NC(=O)c1c(-c2ccccc2)noc1C,1.55
2,NNC(=O)[C@H](Cc1ccccc1)NC(=O)NCCc1ccccc1,4.49
3,Cc1cccc(C(=O)Oc2ccccc2/C=N/NC(=O)c2ccc(NC(=O)C(C)(C)C)cc2)c1,0.901
4,COc1ccccc1C(C)NCC(=O)Nc1c(F)cccc1F (stereo not drawn),10.4
5,COCCn1nnnc1C(c1ccc2ncccc2c1)N1CCc2ccccc21 (stereo not drawn),13.9
6,O=C(O)CSCCC(=O)Nc1ccc(F)cc1,-9.27
7,CCOC(=O)CSc1nc2cc(C(=O)NCC3CCCO3)ccc2c(=O)n1Cc1ccco1 (stereo not drawn),-18.2
8,CCCCCn1c(Sc2ccccc2)nc2c1c(=O)[nH]c(=O)n2C,8.06
9,CSc1nc(N(C)NC(=O)c2cccc(C)c2)c2ccccc2n1,3.46
10,COc1cccc(S(=O)(=O)NCC(=O)N2CCCCCC2)c1,25
11,Cc1ccc(NC(=O)Cc2ccc(Cl)cc2)cc1S(=O)(=O)N1CCCCCC1,10.8
12,Cc1cc(C)nc(SCc2nnc(SCC(=O)Nc3ccccc3C)n2Cc2ccco2)n1,1.01
13,O=C(Nc1nnc(-c2cccnc2)o1)c1cccc(Cl)c1,3.43
14,Cc1ccccc1-n1c(SCC(=O)N2CCCC2)nnc1-c1ccccn1,18.4
15,CSc1nc2oc3c(c2c2nncn12)CC(C)(C)SC3,-1.53
16,Cc1ccc2c(CN3CCC(C(N)=O)CC3)cc(=O)oc2c1C,15.2
17,CC(=O)N/N=C(\C)C1COc2ccccc2O1 (stereo not drawn),7.92
18,CCOc1ccc2[nH]c(=O)c(CN(CCN3CCOCC3)Cc3nnnn3C(C)(C)CC)cc2c1,12.1
19,O=C1CNC(=O)c2c(nc3n2CCC3)N1,5.97
20,O=C(O)CCNC(=O)C12CC3CC(CC(C3)C1)C2,19.2
21,O=C1C2C3C=CC(C3)C2C(=O)N1/N=C/c1ccc(-c2ccccc2[N+](=O)[O-])o1 (stereo not drawn),0.69
22,COc1ccc(Cl)cc1S(=O)(=O)N1CCC(C(=O)NCCC2=CCCCC2)CC1,-10.9
23,O=C(CCN1C(=O)/C(=C/c2ccco2)SC1=S)Nc1ccc(C(=O)O)c(O)c1,13

row,SMILES,"hERG current change (%, negative = inhibition) at 1uM [%]"
1,CC(=O)Nc1ccc(NC(=O)c2cccc(-c3cc4ccccc4oc3=O)c2)cc1,-0.272
2,O=C(NCC1CC1)c1ccc2c(c1)S(=O)(=O)c1cc(Cl)ccc1C2=O,-1.27
3,C=CCNc1cc(C(F)(F)F)nc(-c2ccccn2)n1,0.638
4,Cc1nc2ccc(Cl)cc2c(-c2ccccc2)c1C(=O)[O-].N[NH3+],12.1
5,CC1CN(S(=O)(=O)N2CCOCC2)CCN1S(=O)(=O)N1CCOCC1 (stereo not drawn),14.8
6,CCCCCN(C(=O)CN1CCC(Cc2ccccc2)CC1)c1c(N)n(CCCC)c(=O)[nH]c1=O,7.45
7,NS(=O)(=O)c1ccc(NC(=O)C2Cc3ccccc3C(=O)O2)cc1 (stereo not drawn),2.87
8,Cc1cc(C)c(OCC(=O)OCC(=O)NC2CCCCCCC2)c(C)c1,6.08
9,C#CCNC(=O)C1=C[C@H](c2csc3ccccc23)C[C@H](OCCCCO)O1,3.8
10,COc1ccc(C2CC(c3ccc(F)cc3)Nc3nc(N)nn32)cc1 (stereo not drawn),-0.311
11,Cc1cccc(C(=O)N2CCC(Cc3ccccc3)CC2)c1[N+](=O)[O-],-3.03
12,Cc1cccc(C(=O)OCC(=O)Nc2ccc3c(c2)OCCO3)c1O,10.5
13,CCCN(CCC)S(=O)(=O)c1ccc(C(=O)N2CCOCC2)cc1,-0.629
14,O=C(COC(=O)CNC(=O)c1ccc(Cl)c([N+](=O)[O-])c1)NNC(=O)c1ccccc1F,-2.97
15,Cc1cc(C)c(C#N)c(Nc2cccc(Br)c2)n1,10.3
16,CSCCC(NC(=O)COc1ccccc1)C(=O)NC1CCC(C)CC1 (stereo not drawn),2.98
17,CCOC(=O)C1CCN(C(=O)c2sccc2Cl)CC1,12.5
18,COc1ccc(CC(=O)NNS(=O)(=O)c2ccc(F)cc2)cc1,13.8
19,Cn1c(C(=O)O)cc2cc(F)ccc21,-4.02
20,COc1ccc(NC(=O)CN(C)C(=O)c2cn(-c3ccccc3)nc2-c2ccc(OC)cc2)cc1,4.36
21,Cc1cc(F)ccc1NC(=O)C1CCCO1 (stereo not drawn),9.7
22,Cc1ccccc1-c1nc(CS(=O)CC(=O)N2CCC3(CC2)OCCO3)c(C)o1 (stereo not drawn),-1.03
23,CCOc1ccc(S(=O)(=O)NCCC(=O)N(C)CC(=O)Nc2ccc(N3CCOCC3)cc2)cc1,8.64

row,SMILES,"hERG current change (%, negative = inhibition) at 1uM [%]"
1,Cn1c(=O)oc2cc(S(=O)(=O)N3CCCC(C(=O)NCCN4CCOCC4)C3)ccc21 (stereo not drawn),9.37
2,O=C1C=C(Nc2ccccc2C(=O)O)c2ccccc2C1=O,13.9
3,Cc1nnc(NC(=O)CCn2cnc3ccccc3c2=O)s1,13.7
4,CC1CCCN(CCCNS(=O)(=O)c2ccc3c(c2)CCN3C(=O)C2CC2)C1 (stereo not drawn),11.8
5,NC(=O)c1ccc(NC(=O)CCC(=O)c2cccs2)cc1,9.21
6,C1CSC2(N1)C1CC3CC2CC(C1)C31NCCS1.Cl (stereo not drawn),9.84
7,COc1ccc(NC(=O)COC(=O)CCCC2=NS(=O)(=O)c3ccccc3N2)cc1Cl,10.3
8,Cc1nn(C)cc1S(=O)(=O)N1CCN(c2ccc(F)cc2)CC1,4.55
9,CC(=O)Nc1ccc(OCC(O)Cn2cnc3ccccc32)cc1 (stereo not drawn),14.2
10,O=C(NCc1n[nH]c(=S)n1-c1ccccc1)c1ccc(S(=O)(=O)N2CCOCC2)cc1,1.75
11,COc1ccc(C(C)NC(=S)NC2CCCCC2)cc1OC (stereo not drawn),11.8
12,O=C(c1ccc(-n2cnnn2)cc1)N1CCN(C(c2ccccc2)c2ccccc2)CC1,-5.72
13,CCc1ccccc1N(CC)C(=O)c1cn(C)c(=O)c2cc(OC)c(OC)cc12,13.4
14,CCCCC(=O)Nc1cccc(NC(=O)CC)c1,10.3
15,Cc1ccc(C)c(NC(=O)COC(=O)CSc2ccccc2)c1,5.01
16,CCN(CC(=O)NCc1cccs1)CC(=O)Nc1ccccc1C,4.48
17,COc1cc(NC(=O)[C@@H](NC(=O)c2ccco2)C(C)C)c(OC)cc1NC(=O)c1ccccc1,-6.51
18,O=C(O)C1CCN(S(=O)(=O)c2ccc(N3CCOCC3)c([N+](=O)[O-])c2)CC1,10.6
19,O=C1CC(C(=O)Nc2cccc3ccccc23)C2(CCCC2)O1 (stereo not drawn),13.5
20,O=C(Nc1ccccc1)C1CCN(S(=O)(=O)c2cccs2)CC1,1.37
21,Cc1ccc(F)cc1NC(=O)C1CCCN(c2ncccn2)C1 (stereo not drawn),-9.93
